# Source: paper PMC6457909 (Science (New York, N.Y.), 2019)
# System: group-2 HAs
# Format: binding, influenza A virus
smiles,measurement,value
CC(=O)Nc1ccc2oc(-c3ccnc(C(=O)N4CCN([C@H](c5ccccc5)c5nnn(C)n5)CC4)c3)nc2c1 [JNJ4796],binding to group-2 HAs,inability
